# Assay results reported in the RNAGym collection of RNA variant scans (doi:10.1093/nar/gkz1192).
# The source gives no read counts; variants with many changes may rest on few reads.
# B1: CPEB3 Ribozyme (parent)
# chain: UAACAGGGGGCCACAGCAGAAGCGUUCACGUCGCAGCCCCUGUCAGAUUCUGGUGAAUCUGCGAAUUCUGCUGUAUAUCUC
# Variants of: B1
# Experiment: self-cleavage, relative activity (ratio to wild type); higher = more cleavage; in vitro, sequencing
# In short: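 Relative activity compares each variant's cleaved/total read fraction with that of the unmutated ribozyme. To get these fractions, barcoded CPEB3 ribozyme libraries from rounds of error-prone PCR were transcribed with T7 RNA polymerase for 5 hours at 37°C and then given 15 min of DNase I treatment before EDTA was added. The RNAs were reverse transcribed with template switching and sequenced on Illumina, and DNA sequencing linked barcodes to variants. A minimum of 5 reads applied, and three batches were averaged.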
row,Variant,self-cleavage
1,UAACAGGGGGCCACCGCAGAAGCGUUCACGUCGCAGCCCCUGUCAGGUUCUGGUGAAUCGGCGAAUUCUGCUGUAUAUCUC,0.17
2,UAACAGGGGGCCACCGUAGAAGCGUUCACGCCGCAGCCCCCGUCAGAUUCUGGUGGAUCUGCGUAUUCUGCUGUAUAUCAC,0.09
3,UAACAGGGGGCCACCGCAGAAGCGUUCACGACGCAGCCCCUGUCAGAUUCUGGUGAAUCUGCGAAUUCUGCCGUAUAACCC,0.91
4,UAACAGGGGGCCAUAGCAGAAGCGUUCACGUCGCAGCCCCUGUCAGAUUCUGGUGAAUCCGCGAAUUCAGCUGUAUAUCUC,0.09
5,UAACAGGGGGCCAUAGCAGAAGCGUUCACGUCGCAGCCCCUGUCAGAUCCUGGUGAAUCGGCGUAUUCCGCUGUAUAUCUC,0.11
6,UAACAGGGGGCCAUAGCAGAAGCUUUCACGUCGCAGCCCCUGCCAUAUUCUGGAGAAUCUGCGAAUUAUGCUGUAUAUCUC,0.08
7,UAACAGGGGGCCAUAGCAGAAGCGUUCACGUCGCAGCCCCUGUCAGGUUCUGGUGAAUCUGCGAAUUCUGCUGUAUAUCAC,1.07
8,UAACAGGGGGCCACCGCAGAAGUGUUCACGUCGCAGUCCCUGUCAGGUUCUGGUGGAUCUGCGAAUUCGGCUGUAUAUCUC,0.08
9,UAACAGGGGGCCACCGCAGAAGCGUUCACGUCGCAGCACCUGUCAGAUUCUGGUGAAUCUGCGAAUUCAGCUGUAUAUCUC,0.23
10,UAACAGGGGGCCAUAGCAGAAGCGUUCACGUCGCAGCCCCUGUCAGACUCUGGUGAAUCUGCGAAUGCUGCUGUAUAUCUC,0.15
11,UAACAGGGGGCCACCGCAGAAGCGUUCACGUCGCAGCCCCUGUCAGAUUCUGGUGAAUCAGCGAAUUCUGCUGUAUUUCUC,0.2
12,UAACAGGGGGCCACCGCAGAAGCGUCCACGUCGCAGCCCCUGUCAGAUCCUGGUGAAUCUGCAAAUUCUGCUGGAUAACUC,0.05
13,UAACAGGGGGCCAUAGCAGAAGCGUUCACGUCGCAGCCCGUGUCAGAUUCUGGUGAAUCUGCGAGUUCUGCUGUAUAUCCC,0.06
14,UAACAGGGGGCCAUAGCAGAAGCGUUCACAUCGCAGCCCCUGUCAGAUUCUGGUGAAUCUGCGAAUUCAGCUGUAUGUCUC,0.2
15,UAACAGGGGGCCAUAGCAGAAGCGUUCACGUCGCAGCCCCUGUCGGAUUCUGGUGAAUCUGCGAAUUCUGCUGUGUAUCCC,1.03
16,UAACAGGGGGCCAUAGCAGAAGGGUCCACGUCGCAGCCCCUGUCAGUUUCUGGUGAAUCCGCGGAUUCUGCUGUAUAUCAC,0.06
17,UAACAGGGGGCCACCGCAGAAGCGUUCACGUCGCAGCCCCUGUCAGAUUCAGGUGAAUCUGCGAGUUCUGCUGUAUAUCUC,0.5
18,UAACAGGGGGCCACCGCAGAGGCGUACACGUCGCAGCCCCUGUCAGAUUCAGGUGAAUCUGCGAAUUCUGCUGUAUAUCUC,0.45
19,UAACAGGGGGCCACCGCAGAGGCGUUCACGUCGCAGCCCCUGUCAGAUUCUGGUGAAUCCGCGAAUACUGCUGUACACCUC,0.08
20,UAACAGGGGGCCACCGCAGUAGCGUUCACGUCGCAGCCGCUGUCAGGUUCUGGCGAAUCUGCGAAUUCUGCUGUAUAUCUC,0.25
21,UAACAGGGGGCCACCGCAGAAGCGUUCGCGGCGCAGCCUCUGUCAGACUCUGGUGAGUCCGCGAAUUCUGCUGUAUAUCUC,0
22,UAACAGGGGGCCACCGCAGAGGCGUUCACGUCGCAGCCCAUGUCAGAUUCUGGUGAAUCUGCGAAUUCUGCUGUAUGUCUC,0.39
23,UAACAGGGGGCCAUAGCAGAAGCGUUCACGUCGAUGCCCCCGUCAGAUUCAGGAGAAUCUGCGAAUUCUGCCGUAUAUCUC,0.12

row,Variant,self-cleavage
1,UAACAGGGGGCCACCGCAGAAGCGUACGCGCCGCAGCCCCUGUCAGAUUCUGGUGAAUCUGCGAAUUCUGCUGUAUAUCUC,0.13
2,UAACAGGGGGCCACCGCAGGAGCGUUCAUGUCGCAGCCCCUGUCAGAUUCUGGUGGAUCUGCGAAUUCUGCUGUAUAUCUC,0.08
3,UAACAGGGGGCCAUAGCAUAGGCGUUCACGUCGCAGCCCCUGCCAGAUUCUGGUGAAUCUGCGAAUGCCGCUGUAUAUCUC,0.2
4,UAACAGGGGGCCACCGCAGAAGCGUUCACGUCGCUGCCCCUGUCAGAUUCUGGUGAAUCCGCGAAUUCUGCUGCAUAUCUC,0.07
5,UAACAGGGGGCCAUAGCAGAAGCGUUCACGUCGCAGCCCCUGUCUGAUUCCGGUGAAUCUGCGGAUUCUGCUGUAUAUCAC,0.12
6,UAACAGGGGGCCAUAGCACAAGCGUUCACGUCGCAGCCCCUGUCAGAUUCUGAUGAAUCUGCGAAUUCUGCUGUAUAACUC,0.07
7,UAACAGGGGGCCACCGCAGAAGCGUUCACGUCGCAGCCCCUGUCAGAUUCUGGUGCAUCUGCGAAUUCUGCUGUAUAUCCC,0.41
8,UAACAGGGGGCCACCGCAGGAGCGUUCACGUCGCAGCCCCUGUCAGAUUCUGGUGAAUCUGCGGAUUCUGCUGUAUAUCUC,0.5
9,UAACAGGGGGCCACCGCAGAAGCGUUCACGCCGCAGCCCCUGACAGAUUCUGGAGAAUCUGCGAAUUCUGCUGUAUAACUC,0.75
10,UAACAGGGGGCCACCGCAGAAGCGUUCACGUCGCAGCCCCUGUCAGAUUCCGGUGAAUCUGCGAAUACUGCUGUAUAUCUC,0.3
11,UAACAGGGGGCCACCGCAGAAGCGCUCACGUCGCAGCCCCUGUCAGAUUCUGGUGAAUCUGCGAAUUCUGCCGUAUGUCUC,0.1
12,UAACAGGGGGCCAUAGCAGAAGCGUUCACGUCGCAGCCCCUGUCAGAUCCUGGUGGAUCUGCGAAUUCUGCUGUAUAUCUC,1.25
13,UAACAGGGGGCCACCGCAGAAGCGUUCACGUCGCAGCCCCUGUCAGAUUCUGGUGGAUCUGCGGAUUCUGCUGUAUAUCUC,0.72
14,UAACAGGGGGCCACCGCAGAGGCGUACACGUUGCAGCCCCUGUCAGAUUCUGGUGAAUCUGCGAAUUCUGCUGUAUAUCUC,0.29
15,UAACAGGGGGCCAUAGCAGAAGCGUUCACGUCGCAGCCCCUGUCAGAUUCCGGUGAAUCUGCGAAUCCUGCUGUAUAUCUC,0.32
16,UAACAGGGGGCCAUAGCAGAAGCGUUCACGUCGCAGCCCCUGCCAGAUUCUGGUGAACCUGCGAAUUCUGCUGUAUAUCUC,0.16
17,UAACAGGGGGCCACCGCAGAAGCGUUCACGUCGCAGCCCCUGUCAGAUCCUGGUGAAUCUGCGAAUUCUGCUUUAUAUCUC,0.28
18,UAACAGGGGGCCAUAGCAGAAGCGUUCACGUCGCGGCCCCUGUCAGAUUCUGGUGAAACUGCGAAUUCUGCUGGAUAUCUC,1.29
19,UAACAGGGGGCCACCGCAGAAGCGUUCACGUCGCAGCCCCUGCCAGAUUCUGGCGUAUCUGCGAACUCUGCUGUAUAUCUC,0.14
20,UAACAGGGGGCCACCGCAGAAGCGUUCACGUCGCAGCCCCUGUCAGAUUCUGGUGAAUCUGCGAAUUCUGCAGUAUAUCCC,1.09
21,UAACAGGGGGCCAUAGCAGAAGCGUUCACGUCGCAGCCCCUGUCAGACCCAGGUGAAUCUGCGAAUUCUGCUGUAUAUCUC,0.12
22,UAACAGGGGGCCAUAGCAGAAGCGUUCACGUCGCAACCCCUGUCAGAUUCUGUUGAAUCUGCGAAUUCUGCUGUAUAUCUC,0.3
23,UAACAGGGGGCCAUAGCAGAAGCGUCCACGUCGCAGCCCCUGUCAGAUUCUGGUGAAUCUGCGAAUUCUGCUGUAUAUCGC,1.03

row,Variant,self-cleavage
1,UAACAGGGGGCCAUAGCAGAAGCGCUCACGUCGCAGCCCCAGUCUGAUUCUGGUGAAUCCGCGAAUUCUGCUGUCUAUCUC,0.07
2,UAACAGGGGGCCAUAGCAGAAGCGUUCACGUCGCAGCCCCUGUCAGAUUCAGGCGAAUCUGCGAAUUCUGCUGUAUAUCUC,1.24
3,UAACAGGGGGCCAUAACAGAAGCGCUCUCGUCGCAGCCCCUGUCAGAUUCUGGUGAAUCUGCGAAUUCUGCUGUGUAUCUC,0.23
4,UAACAGGGGGCCACCGCUGAAGCGUUCACGUCGCAGCCCCUGCCAGAUUCUGGUGAAUCUGCGAAUUCAGCUGUAUAUCUC,0.89
5,UAACAGGGGGCCACCGCGGAAGCGUACACGUCGCAGCCCCUGUCAGAUUCUGGUGAGUCUGCGAAUUCUGCUGUAUAUCUC,0.45
6,UAACAGGGGGCCAUAGCAGAAGCGUUCACGUCGCAGCCCCUGUCAGAUUCUGGUGAAUCUGCGAAUUCUGCAGUAUGUCUC,1.2
7,UAACAGGGGGCCACCGCAGAGGCGUUCACAUCGCAGCCCCUGUCAGAUACCGGUGAAUCUGCGAAUCCUGCUGUAUAUCUC,0.06
8,UAACAGGGGGCCAUAGCAGAAGCGCUCACGUCGCAGCCCCUGUCAGAUUCUGGUGAAUCUGCUAAUUCUGCUGUAUAUCUC,0.4
9,UAACAGGGGGCCAUAGCAGAAGGGUUCACGUCGCAGCCCCUGUCAGAUUCUGGUGAAUCUGCGAGUUCUGCUGAAUAUCUC,0.08
10,UAACAGGGGGCCACCGCAGGAGCGUUCAAGUCGCAGCCCCUGUCGGAUUCUGGUGAAUCUGCGAAUUCUGCUGUAUAUCUC,0.25
11,UAACAGGGGGCCACCGCAGAAGCGUUCACGUCGCAGCCCCUGUCAGAUUCUGGUGAAUCUGCGAUUUCUGCUGUAUACCUC,0.27
12,UAACAGGGGGCCACCGCAGAAUCGUUCACGACGCAGCCCCUGUCAGAUUCUGGCGAAUCUGCGAAUUCUGCUGUAUGUCUC,0.18
13,UAACAGGGGGCCACCGCAGUAGCGUUCACGUCGCAGUCCCAGUCAGAUUCUGGUGAAUCUGGGGAUUCUGCUGGAUAUCUC,0.03
14,UAACAGGGGGCCAUAGCAGAAGCGAUCACGUCGCAGCCCCCGUCAGAUUCUUGUGAAUCUGCGAGUUCUGCCGUAUAUCUC,0.08
15,UAACAGGGGGCCAUAGCAGAAGCGUUCACGUCGCAGCCCCUGUCAGAUUCGGGUGAAUCUGCGAAUCCUGCUGUAUAUCUC,0.14
16,UAACAGGGGGCCACCGCAGAAGCAUACACGUCGCUGCCCCUGUCAGAUUCUGGUGAAUCUGCGAAUUCUGCUGUAUAUCUC,0.18
17,UAACAGGGGGCCACCGCAGAAGCGUUCACGUCGCAGCCCCUGCCAGAUUCUGGUGAAUCUGCGAAUCCUGCUGUAUAUCUC,0.15
18,UAACAGGGGGCCACCGCACAAGCGUUCACGUCGCAGCCCCUGUCAGAUUCUGGUGAAUCUGCGAGUUCAGCAGUAUAUCUC,0.07
19,UAACAGGGGGCCAUAGCAGAAGCGUUCACGUCGCUGCCCCCGUCAGAUUCUGGUGAAUCCGCGAAUUCUGCUGUAUUUCUC,0.35
20,UAACAGGGGGCCACCGCAGAGGCGUUCACGUCGCAGCCCCUGUCAGAUUCUGGUGAAUCUGCGAAUUCUCCUGUAUAUCUC,0.07
21,UAACAGGGGGCCAUAGCAGAAGCGUUCACGUCGCAGCCCCUGUCGGAUUCUGGUGAGUCUGCGAAUUCUGCUGUAUAUCUC,1.02
22,UAACAGGGGGCCAUAGCAGAAGCGAUCACGUCACAGCCCCUGUCAGACUCCGGUGAAUCUGCGAAUUCUGCUGUACAUCUC,0.1
